Measured values published in paper PMC9911399, “Two distinct binding modes provide the RNA-binding protein RbFox with extraordinary sequence specificity”.
Numbering of substitutions follows the chain as printed; changes in the protein carry UniProt numbers. This is one part of the list.

T1: RBFOX1 RRM RbFoxmut (Fox-RRM*) (Homo sapiens, UniProt Q9NWB1 109-208, R118D;E147R;N151S;E152T)
T1 sequence: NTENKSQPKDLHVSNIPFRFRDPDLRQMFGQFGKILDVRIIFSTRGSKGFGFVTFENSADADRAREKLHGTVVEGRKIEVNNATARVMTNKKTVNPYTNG

B1: GACCGAC (DNA:RNA)
RNA: GGGAGACCGGAAUUCAGAUUGUCCGACCGACUUAAAUCCCGUCGUAGCCACCA
DNA 1: CAATCTGAATTCCGGTCTCCC
DNA 2: TGGTGGCTACGACGGGATT
B2: GCCUUAC (DNA:RNA)
RNA: B1 RNA with A26C, C28U, G29U
DNA 1: CAATCTGAATTCCGGTCTCCC
DNA 2: TGGTGGCTACGACGGGATT
B3: CUCCUGA (DNA:RNA)
RNA: B1 RNA with G25C, A26U, G29U, A30G, C31A
DNA 1: CAATCTGAATTCCGGTCTCCC
DNA 2: TGGTGGCTACGACGGGATT
B4: UCAGAAU (DNA:RNA)
RNA: B1 RNA with G25U, A26C, C27A, C28G, G29A, C31U
DNA 1: CAATCTGAATTCCGGTCTCCC
DNA 2: TGGTGGCTACGACGGGATT
B5: GUGCCGG (DNA:RNA)
RNA: B1 RNA with A26U, C27G, G29C, A30G, C31G
DNA 1: CAATCTGAATTCCGGTCTCCC
DNA 2: TGGTGGCTACGACGGGATT
B6: GCUUGUC (DNA:RNA)
RNA: B1 RNA with A26C, C27U, C28U, A30U
DNA 1: CAATCTGAATTCCGGTCTCCC
DNA 2: TGGTGGCTACGACGGGATT
B7: CUUGGUC (DNA:RNA)
RNA: B1 RNA with G25C, A26U, C27U, C28G, A30U
DNA 1: CAATCTGAATTCCGGTCTCCC
DNA 2: TGGTGGCTACGACGGGATT
B8: UGCGGCC (DNA:RNA)
RNA: B1 RNA with G25U, A26G, C28G, A30C
DNA 1: CAATCTGAATTCCGGTCTCCC
DNA 2: TGGTGGCTACGACGGGATT
B9: GGCAAGG (DNA:RNA)
RNA: B1 RNA with A26G, C28A, G29A, A30G, C31G
DNA 1: CAATCTGAATTCCGGTCTCCC
DNA 2: TGGTGGCTACGACGGGATT

Biological target: T1, RBFOX1 RRM RbFoxmut (Fox-RRM*)
Test: EMSA; HiTS-Eq, 1 nM pool, 10 min; buffer printed only for the single-RNA assays: 10 mM Tris pH 7.5, 150 mM NaCl, 3.4 mM EDTA, 0.001% NP-40, 30 C
Conditions: tags: His6 N-terminal (pET28a); label: 5' 32P
Summary of the method: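 Purified wild-type or mutant RbFox RRM at increasing concentrations was equilibrated with 1 nM of 5′-radiolabelled RNA carrying 7 randomized nucleotides for 10 min in 50 µL. Unbound RNA was separated by 8% native PAGE and sequenced. Relative association constants came from read-count changes of each RNA species compared with the control reaction, normalised to the cognate motif.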

Binder	binding signal
B1	0.113 KA relative to UGCAUGU
B2	0.0971 KA relative to UGCAUGU
B3	0.0832 KA relative to UGCAUGU
B4	0.104 KA relative to UGCAUGU
B5	0.0871 KA relative to UGCAUGU
B6	0.248 KA relative to UGCAUGU
B7	0.173 KA relative to UGCAUGU
B8	0.294 KA relative to UGCAUGU
B9	0.074 KA relative to UGCAUGU
